The other results are listed elsewhere or left out.

The target of this test is T1, OsWOX13 (Oryza sativa, UniProt Q5QMM3 1-267).
T1 sequence: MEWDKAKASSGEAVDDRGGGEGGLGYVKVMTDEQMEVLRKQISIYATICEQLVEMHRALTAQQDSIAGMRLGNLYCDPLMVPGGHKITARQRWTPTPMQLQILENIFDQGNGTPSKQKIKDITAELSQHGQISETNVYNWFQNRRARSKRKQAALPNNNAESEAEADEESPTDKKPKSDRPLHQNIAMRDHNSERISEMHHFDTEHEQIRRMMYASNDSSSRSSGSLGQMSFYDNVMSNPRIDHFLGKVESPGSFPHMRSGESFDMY
The test can be described thus: protein-binding microarray (RPBM); PBS, 2% BSA, 51.3 ng/ul salmon testes DNA, 50 uM zinc acetate, 200 nM TF, 25 C, 1 h; high values mean tight binding. Conditions: protein: recombinant; tags: N-terminal polyhistidine and DsRed monomer fusion (pET32a); label: CyDye5-dUTP incorporated in the synthesized complementary strand; 3' TTTTT single-stranded linker to array surface; dsDNA, one strand shown. The essentials:
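Using Ni–NTA, transcription factors fused N-terminally to polyhistidine and DsRed were purified after expression in E. coli BL21-CodonPlus. These were incubated at 200 nM with a blocked, double-stranded custom Agilent array for 1 h at 25 °C in a buffer containing 50 µM zinc acetate, and the array was washed. The binding signal is per-feature fluorescence intensity (arbitrary units) on an Axon 4000B scanner.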
In the case of “GGATTAAATGGAGAAAATTTCAAATTGAGTTATTTGATGGCGGAGTCACCTAGTGCAG”, the binding signal is 24500 fluorescence intensity (a.u.).
Consider “TCATGATTTGACAATATGGTGATACAGTAAACATTTACTACGGAGTCACCTAGTGCAG”, for which the binding signal is 14800 fluorescence intensity (a.u.).
In the case of “CGATGATTGCTCTAAATTATATGCACCTCTCGGAATGATGCGGAGTCACCTAGTGCAG”, the binding signal was 39400 fluorescence intensity (a.u.).
With “ACAAATTATCCATGTGTAATTAGTACCAAAGTATTTGTGTCGGAGTCACCTAGTGCAG”, the binding signal is 25500 fluorescence intensity (a.u.).
With “CATTACAATTATAAGTTATTGAATGTGTTTATTTCGAAGCCGGAGTCACCTAGTGCAG”, the binding signal was 6780 fluorescence intensity (a.u.).
Take “CTCCTAATTTAGTCACTTATGGAGCTCTGATAGCTGGATGCGGAGTCACCTAGTGCAG”: the binding signal was 14200 fluorescence intensity (a.u.).
Regarding “CTTGTGTAATCAATCATTGATCGCCAGTGAGGGAAGGAAGCGGAGTCACCTAGTGCAG”, the binding signal was 30600 fluorescence intensity (a.u.).
Consider “GTGTAATTACACTACGATTGTACTGTAATTACATCTGTCACGGAGTCACCTAGTGCAG”, for which the binding signal is 29900 fluorescence intensity (a.u.).
On to “ACACACAGCGGCAAAATTGACACATTACACATCAGGAATCCGGAGTCACCTAGTGCAG”, for which the binding signal is 5060 fluorescence intensity (a.u.).
With “GTACTAATTAAATTGACATTAACCTAATTGCCGGTCAAATCGGAGTCACCTAGTGCAG”, the binding signal is 42100 fluorescence intensity (a.u.).
As for “GGGATTTGGTGAGCGATTGATTCGATTCGATTGGATTCGACGGAGTCACCTAGTGCAG”, the binding signal was 4740 fluorescence intensity (a.u.).
Consider “CAAACTGTACCAATCAAAATAATGATAATGCCGTCCCAAACGGAGTCACCTAGTGCAG”, for which the binding signal is 12800 fluorescence intensity (a.u.).
On to “GACAATGTAATTGAACATGAGGCTTGTCCAGATACATTCTCGGAGTCACCTAGTGCAG”, for which the binding signal is 7280 fluorescence intensity (a.u.).
The same measure for “TTTGGTTGAAATTGAAACGATGTGATGGAAAAGTTGGAAGCGGAGTCACCTAGTGCAG”: 5010 fluorescence intensity (a.u.).
With “ACTGATTGGGATGCCACGTCAACGAAACTAGATATCCATACGGAGTCACCTAGTGCAG”, the binding signal was 33700 fluorescence intensity (a.u.).
The value for “TCAAGGGGATTCCTCAATTAACGCTTTTCTTATAGGATATCGGAGTCACCTAGTGCAG” was 5150 fluorescence intensity (a.u.); that for “CTCTAATGGGACTTGTTAATTAATTTTCTCCTGATTCTTGCGGAGTCACCTAGTGCAG” was 19600 fluorescence intensity (a.u.); that for “TAATAAATTTGACTAGTTATTCAACTTTGACATAAAATCCCGGAGTCACCTAGTGCAG” was 11500 fluorescence intensity (a.u.).
With “GCCTTAATACATATAATTACTAGGACAAATGTATACATGCCGGAGTCACCTAGTGCAG”, the binding signal is 12300 fluorescence intensity (a.u.).
As to “GAACAGTATATTTTCAAATTTAATTGGGGAATGACATTGACGGAGTCACCTAGTGCAG”, the binding signal was 5930 fluorescence intensity (a.u.).
In the case of “GATTCCAGCCAATTGACTGTGTTCCTTGATGATTATACCACGGAGTCACCTAGTGCAG”, the binding signal is 4340 fluorescence intensity (a.u.).
With “TCAAGATAAAATGATTTTCTAATTGCATGGGTTGTCATTACGGAGTCACCTAGTGCAG”, the binding signal is 14600 fluorescence intensity (a.u.).
Turning to “GCATTTCTTTAATTTCTTGCTCTCCATTCTCATTCCCAATCGGAGTCACCTAGTGCAG”, the binding signal was 3310 fluorescence intensity (a.u.).
Turning to “ACAATAATATAAATCAAACGATTTGACAAGTTTTCCGGAACGGAGTCACCTAGTGCAG”, the binding signal is 11300 fluorescence intensity (a.u.).
With “ATTTGTACGATAAATTGAGAGATGTAATGTGAACTTATTCCGGAGTCACCTAGTGCAG”, the binding signal was 3920 fluorescence intensity (a.u.).
Turning to “AATATTTTCAAGCATCAATCACTGTTTACAGTACGGCACACGGAGTCACCTAGTGCAG”, the binding signal is 8430 fluorescence intensity (a.u.).
“GTGATGATGAATTAATTGCTGAATGGCGAATGCAGTGCAGCGGAGTCACCTAGTGCAG”: the binding signal was 58900 fluorescence intensity (a.u.).
The value for “CAGTACAATTAGACACATGTAACTGGCAAAACTAAATCATCGGAGTCACCTAGTGCAG” was 7480 fluorescence intensity (a.u.); that for “AGGTCAATCTTGATAGGCCCAATTACTCCTATTGCTACTACGGAGTCACCTAGTGCAG” was 6520 fluorescence intensity (a.u.).
For “GGGATGATCAGGGATTAGATTAGTGACAGAGGCCCGATTACGGAGTCACCTAGTGCAG”, the binding signal is 16600 fluorescence intensity (a.u.).
The same measure for “TGGTGACTGTAACAAAATGTTAGGAACTCAATTGGGTTGTCGGAGTCACCTAGTGCAG”: 8980 fluorescence intensity (a.u.).
For “GTAGATATTGATGATTTATATAACTTTGTTGTTGATGACTCGGAGTCACCTAGTGCAG”, the binding signal was 14500 fluorescence intensity (a.u.).
Take “TATAAATTTTAAATCTTAATTTCAGAGTTGATTTTGATTCCGGAGTCACCTAGTGCAG”: the binding signal was 20400 fluorescence intensity (a.u.).
In the case of “GCAATTATCTTGATGACATAATGTTGTATTATATAGAAATCGGAGTCACCTAGTGCAG”, the binding signal was 4580 fluorescence intensity (a.u.).
In the case of “GCCGCCACCTTCGCCTTTATAAAGCTTACCTTTGCTACCACGGAGTCACCTAGTGCAG”, the binding signal was 64800 fluorescence intensity (a.u.).
The value for “TTTCTGATTTCTCCTCCTCTAATTACCGCCTCCTCCTCCTCGGAGTCACCTAGTGCAG” was 3430 fluorescence intensity (a.u.); that for “GAAAATTATATATTACCTCTGGTACTGTTTGTAATTTAGGCGGAGTCACCTAGTGCAG” was 9680 fluorescence intensity (a.u.).
The same measure for “AAATTTAAATTTTGGTTTATAAACATATGCATAAGCCAAACGGAGTCACCTAGTGCAG”: 3590 fluorescence intensity (a.u.); for “TGGACTAATTAGGCTCAAAAGATTCGTCTCGTGATTTTCTCGGAGTCACCTAGTGCAG”: 11200 fluorescence intensity (a.u.).
In the case of “TGCACGGGTTAATTATGTGGCCGACAGTGGACGACTTTGTCGGAGTCACCTAGTGCAG”, the binding signal is 3670 fluorescence intensity (a.u.).
As for “ATAAATAAATAAAATTGAGCATATTATGAGCAGCTGTGATCGGAGTCACCTAGTGCAG”, the binding signal is 6980 fluorescence intensity (a.u.).
With “TGGCTTTAGATTAATAGATAGATTAAACGTAGACTAATGACGGAGTCACCTAGTGCAG”, the binding signal was 17200 fluorescence intensity (a.u.).
As for “GGCAATCAATTATTAATTGATTAATTCCATGAATAGCACACGGAGTCACCTAGTGCAG”, the binding signal is 64900 fluorescence intensity (a.u.).
Regarding “ATATATATATATATAATAATTATATCACATATTTCTTGTTCGGAGTCACCTAGTGCAG”, the binding signal is 3450 fluorescence intensity (a.u.).
The same measure for “TACAATTACAAGTCTATCTAGATTTATTATACTAGATTATCGGAGTCACCTAGTGCAG”: 4260 fluorescence intensity (a.u.); for “CTGTAACTGAGATTTTGAGAATAAGTGGAGCACAAGGGTGCGGAGTCACCTAGTGCAG”: 5590 fluorescence intensity (a.u.).
“GCCCCACATGTCAATCTCACCCTCCCTTCTTCCTCCTCTCCGGAGTCACCTAGTGCAG”: the binding signal was 4320 fluorescence intensity (a.u.).
“AACTCAATCAAACACCACTGGTCTCATAACGCTGCTGTCACGGAGTCACCTAGTGCAG”: the binding signal was 5380 fluorescence intensity (a.u.).
The same measure for “CATTAATTAATTAGTACAACACCGAACGAAAAGAAGCGAACGGAGTCACCTAGTGCAG”: 37100 fluorescence intensity (a.u.); for “TGCGGATTGAAATCAAACTTCGCTAGATGCATTTGATTTGCGGAGTCACCTAGTGCAG”: 25200 fluorescence intensity (a.u.); for “GCTTGATTTGTACTACTATTTGGAATTTTAGCAGGTGACACGGAGTCACCTAGTGCAG”: 42800 fluorescence intensity (a.u.).
The same measure for “AAGCGAATTGATGAAGGGAGGAAGGAGATGGAGAGAGTCGCGGAGTCACCTAGTGCAG”: 8820 fluorescence intensity (a.u.).
“ATTTACCGCAACTGTAATTGAGATGGTTTTGAGATTTCATCGGAGTCACCTAGTGCAG”: the binding signal is 6850 fluorescence intensity (a.u.).
On to “ACCGCAGTCTCCTTGCTGTGATTTGTTTGGCGTTTGCTTCCGGAGTCACCTAGTGCAG”, for which the binding signal is 7280 fluorescence intensity (a.u.).

These data come from paper PMC7819943, “Rice protein-binding microarrays: a tool to detect cis-acting elements near promoter regions in rice”.
